# From paper PMC6919601, “Identification of Plasmodium dipeptidyl aminopeptidase allosteric inhibitors by high throughput screening” (PLoS ONE, 2019)
# Among all 110,000 compounds or so, about 230 (0.21%) showed an effect of 50% or more. This is one part of the list.
# Biological target: DPAP1 (Plasmodium falciparum, UniProt Q8IIJ9)
# Experiment: primary screen, percent inhibition; read by cleavage of a fluorogenic dipeptide substrate; higher = more effect of the substance
# Design: species or system P. falciparum D10 trophozoite lysates; single well
# 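Further: 30 min substrate incubation versus DMSO and 10 µM JCP410 controls.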
# Chain of DPAP1 (Q8IIJ9 whole entry, looked up): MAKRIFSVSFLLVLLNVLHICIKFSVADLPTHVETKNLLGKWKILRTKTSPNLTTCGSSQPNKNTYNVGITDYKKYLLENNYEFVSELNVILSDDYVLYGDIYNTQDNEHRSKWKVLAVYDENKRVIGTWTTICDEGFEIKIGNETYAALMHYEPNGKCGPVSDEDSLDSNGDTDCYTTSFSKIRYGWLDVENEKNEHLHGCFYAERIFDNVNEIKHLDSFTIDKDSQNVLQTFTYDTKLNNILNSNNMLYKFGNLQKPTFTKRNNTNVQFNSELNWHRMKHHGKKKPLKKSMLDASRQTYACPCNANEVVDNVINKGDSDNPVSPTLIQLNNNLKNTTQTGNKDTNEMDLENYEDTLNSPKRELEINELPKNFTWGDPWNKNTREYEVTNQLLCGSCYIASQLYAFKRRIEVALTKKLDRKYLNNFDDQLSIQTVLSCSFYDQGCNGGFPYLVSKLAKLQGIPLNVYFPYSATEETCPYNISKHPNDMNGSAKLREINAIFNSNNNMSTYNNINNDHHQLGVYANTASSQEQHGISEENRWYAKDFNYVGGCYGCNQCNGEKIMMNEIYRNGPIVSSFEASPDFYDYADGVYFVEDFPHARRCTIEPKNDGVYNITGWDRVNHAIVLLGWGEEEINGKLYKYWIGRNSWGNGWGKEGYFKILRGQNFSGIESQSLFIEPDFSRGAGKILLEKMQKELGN
row,Compound,% Inhibition @ 10 uM [%]
1,CCOC(=O)C1=C(C)N=c2s/c(=C/C=C/c3ccccc3)c(=O)n2C1c1ccc(OC)cc1 (stereo not drawn),8.01
2,CSc1nc(SCc2ccccc2Cl)nc(N)c1C#N,9.94
3,O=C(NCCCc1ccccc1)C1CCC(CNS(=O)(=O)c2cccc3cccnc23)CC1 (stereo not drawn),-4.21
4,Cc1c(CNC(=O)c2nn3c(C(F)(F)F)cc(-c4ccccc4)nc3c2Cl)cnn1C,-3.9
5,CCOC(=O)N1CCN(c2c(NCC3CCCO3)c(=O)c2=O)CC1 (stereo not drawn),-5.05
6,COc1cccc(C(=O)Nc2cccnc2)c1OC,-5.41
7,Cc1nc2[nH]c(-c3ccccc3)nc2cc1Br,8.38
8,COCc1[nH]nc2c1C1(CCN(Cc3ccccc3)CC1)C(C#N)=C(N)O2,-4.43
9,CC(NC(=O)CCn1c(=O)c2cccn2c2cccnc21)c1ccccc1 (stereo not drawn),-1.28
10,O=C(c1ccncc1)N(c1ccc2oc3c(c2c1)CCCC3)S(=O)(=O)c1cccs1,3.26
11,CCC1CCCCN1CCCNC(=O)c1cc2c(O)nc3ccccc3c2s1 (stereo not drawn),2.9
12,COc1ccc(OCCCCc2c(C)n[nH]c2C)cc1,-1.41
13,CC1CN(C(C)(C)C)CC(O)(c2ccccc2)C1 (stereo not drawn),-3.26
14,O=C(NC1CC1)c1ccc(Cn2cnnn2)cc1,-0.703
15,COCCCNC(=O)CN1CCN(Cc2ccccc2Cl)C1=O,-2.99
16,Cc1ccc(C(=O)Nc2ccc3c(c2)oc2ccccc23)cc1,-4.26
17,CC(C)(C)NS(=O)(=O)c1ccc(OCC(=O)NCC2CCCO2)cc1 (stereo not drawn),-4.15
18,CCN(CC)CC(O)COc1ccc(OCC(O)CN(CC)CC)cc1 (stereo not drawn),23.6
19,CCCC(=O)NCn1nnc(-c2ccc(Cl)cc2)n1,0.686
20,COC(=O)C1=C(C)NC(=O)/C1=C\c1cc(C)n(-c2cc(Cl)cc(Cl)c2)c1C,1.84
21,O=S(=O)(c1ccc(-n2cnnn2)cc1)N1CCC(N2CCCCC2)CC1,-2.4
22,O=C(Nc1cc(Cl)ccc1Cl)c1ccc(N2C(=O)C3C4C=CC(C4)C3C2=O)cc1 (stereo not drawn),-0.0619
23,CCOc1ccccc1CNCc1cccs1,1.84
24,Oc1ccc(-c2ccco2)nn1,0.635
25,Cc1cccc(NC(=O)c2ccccc2[N+](=O)[O-])c1C,0.247
26,O=C(c1ccc(-c2ccccc2)cc1)N1CCN(c2ccccc2)CC1,6.65

row,Compound,% Inhibition @ 10 uM [%]
1,c1ccc(Cn2c3ccccc3c3nc4ccccc4nc32)cc1,-2
2,Cc1cc(C)c2nc(-c3ccc(C)o3)cc(C(=O)O)c2c1,0.431
3,COc1cc(-c2nc(O)c3c(n2)Oc2c(cc(Br)cc2OC)C3)ccc1O,0.351
4,CC(C)c1ccc(-n2nnc(-c3nc(-c4cccs4)no3)c2N)cc1,4.23
5,Cc1nc2cc(S(=O)(=O)N3CCC(C(=O)NCc4ccoc4)CC3)ccc2n1C1CCCC1,-3.53
6,CC1CCCCN1CCNC(=O)Cn1nc(-c2ccc(Cl)cc2)ccc1=O (stereo not drawn),-1.79
7,CCOCCCNC(=O)C(NC(=O)Cc1c[nH]c2ccccc12)c1ccccc1 (stereo not drawn),3.51
8,COc1ccc(OC)c(Nc2nc(-c3ccc(OC)c(OC)c3)cs2)c1,-1.26
9,C=CCOC(=O)NC1CCS(=O)(=O)C1 (stereo not drawn),0.0539
10,N#Cc1ccc(Br)cc1/C=C/C(=O)O,5.98
11,Fc1ccc(-n2c(S)nnc2C23CC4CC(CC(C4)C2)C3)cc1,3.27
12,CCOC(=O)c1c(C)n(-c2ccc(OC)cc2)c2c1cc(O)c1ccccc12,-2.26
13,CCc1ccccc1N(CC(=O)NC1CC2CCC1C2)S(=O)(=O)c1ccccc1 (stereo not drawn),0.0504
14,Cc1cccc(CN2C(=O)N/C(=C/c3cc(C)n(-c4ccccn4)c3C)C2=O)c1,-12.5
15,COc1ccc(C2=NN3C(C2)c2cc(OC)ccc2OC3(C)C)cc1 (stereo not drawn),43.8
16,COC(=O)c1ccccc1NC(=O)C(C)Oc1ccc(F)cc1 (stereo not drawn),5.79
17,COc1ccc(OC)c(/C=C(/C#N)c2nc(-c3cc4ccccc4oc3=O)cs2)c1,2.7
18,CC(=O)N1c2ccccc2N(CC(=O)c2ccccc2)C(=O)CC1C (stereo not drawn),2.27
19,COc1ccc(-c2cc3ccccn3c2C)cc1OC,1.72
20,COC(=O)c1ccc2c(c1)C(=O)/C(=C/c1cccs1)O2,-1.37
21,COc1ccc(CCNC(=O)c2cc(S(=O)(=O)N3CCCCC3)c[nH]2)cc1OC,-5.3
22,COc1ccc(N(Cc2ccc(F)cc2)C(=O)c2ccco2)cc1,0.162
23,Cc1ccccc1Cn1c(CCCNC(=O)c2ccco2)nc2ccccc21,3.74
24,CC(C)(O)C#Cc1ccc(C(=O)N2CCN(C/C=C/c3ccccc3)CC2)cc1,1.37
25,O=C(CN1Cc2ccccc2C1=O)NCCc1ccccc1,-2.96
